# According to PubChem BioAssay AID686978 (National Center for Advancing Translational Sciences (NCATS), 2013):
# Where “and” joins values, the source holds several entries; their conditions need not be identical. Identical values can stand only once. Out of some 420,000 compounds screened, about 64,000 (15%) were called active. Inconclusive means that the source gave no clear call. Such entries were picked first, then a sample of the others. The call rests on the fitted dose curve; in most records, active means well fitted inhibition curve with a large enough effect; inconclusive means small, poorly fitted or top-dose-only effect; inactive means flat fitted curve, though single readings scatter. A potency beside an inconclusive call is a rough fit, not a confirmed value.
# Assay: qHTS for Inhibitors of human tyrosyl-DNA phosphodiesterase 1 (TDP1): qHTS in cells in absence of CPT; further: nearly all actives have a fitted effect of over 55% in size
# Conditions: DT40 Tdp1-/- hTDP1 cells, no CPT, ATP luminescence, 48 h; activity change, negative = growth inhibition: at 46.2 µM (top of the series) unless noted
# In short: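 Growth of hTDP1-complemented DT40 Tdp1-knockout cells is measured by ATP luminescence after at least 48 hr compound exposure at 37 °C, with DMSO substituting for the 20 nM CPT used in the parallel screen.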
# On the % scale 0 is the no-effect control and ±100 the full control effect; potency means the concentration at half of the fitted maximal effect; tags describe the fitted curve by direction and shape.
SMILES,Potency,"activity change, negative = growth inhibition"
COCCCNC(=O)c1sc2nc(C)c(C(=O)Nc3ccc(C)cc3C)c(-c3ccccc3Cl)c2c1N,"inconclusive: 32.6 µM [inhibitor, single point]",
COc1ccc(S(=O)(=O)N2CCC(C(=O)NCc3cccnc3)CC2)cc1Cl,,inactive: -8.2%
COc1ccc(C2c3ccc4ccccc4c3Oc3ncn(CCCO)c(=N)c32)cc1 (stereo not drawn),"inconclusive: 18.4 µM [inhibitor, single point]",
Cn1cc([N+](=O)[O-])c(C(=O)NNC(=O)c2ccc([N+](=O)[O-])cc2Cl)n1,,inactive: -27.4%
CCc1cc(=O)oc2c(C)c3c(cc12)CN(CCc1ccccc1OC)CO3,active: 20.6 µM,
COc1ccc(-c2cnc(OC(C)(C)C)nc2OC(C)(C)C)cc1OC,"inconclusive: 18.4 µM [inhibitor, partial curve]",
CCOC(=O)C1CCN(c2ccccc2CN2CCN(c3ccccc3OCC)CC2)CC1,"inconclusive: 29.1 µM [inhibitor, single point]",
COc1ccc(C(=O)NCc2ccc3c(c2)CCN3C(=O)c2ccccc2)cc1,active: 23.1 µM,
CC(=O)c1ccc(NC(=O)CCOc2cc(C)ccc2C)cc1,"inconclusive: 29.1 µM [inhibitor, single point]",
CC(=O)N1c2ccc(S(=O)(=O)NCc3ccco3)cc2CC1C (stereo not drawn),,inactive: -27.4%
Cc1ccc(S(=O)(=O)CCC(=O)Nc2nccs2)cc1,"inconclusive: 29.1 µM [inhibitor, partial curve, poor fit]",
CCOC(=O)C1CCN(C(=O)c2ccccc2)C(CC)C1=O (stereo not drawn),"inconclusive: 29.1 µM [inhibitor, single point]",
O=C(COc1ccc(F)cc1Br)N1CCN(S(=O)(=O)/C=C/c2ccccc2)CC1,"inconclusive: 23.1 µM [inhibitor, single point]",
CC1(c2ccc3noc(-c4ccccc4)c3c2)OCCO1,"inconclusive: 25.9 µM [inhibitor, single point]",
Cn1c(N)c(C(=O)COC(=O)COc2ccccc2C#N)c(=O)n(C)c1=O,,inactive: -4.9%
O=C(Nc1ccc2c(c1)OCCO2)c1ccc(Br)s1,"inconclusive: 29.1 µM [inhibitor, single point]",
COc1ncccc1-c1nnn(-c2ccc(C)cc2)n1,"inconclusive: 32.6 µM [inhibitor, single point]",
Cc1ccc(NC(=O)CCC(=O)NNC(=S)Nc2ccccc2)c(C)c1,,inactive: -0.787%
CSc1sc(C(=O)NN)c2c1C1(CCC2)SCCS1,,inactive: -17.6%
O=C(CCSCc1cnn(-c2ccccc2)c1-n1cccc1)NCc1ccccc1Cl,"inconclusive: 29.1 µM [inhibitor, single point]",
CC(=O)c1ccc(N2CCN(S(=O)(=O)c3c(C)[nH]c(=O)[nH]c3=O)CC2)cc1,,inactive: -2.01%
Cc1ccc(Cl)cc1N1CCN(C(=O)c2ccc(CS(=O)c3ccccc3)o2)CC1 (stereo not drawn),active: 5.17 µM,
Cc1ccc(O)c(C2=NNC(c3ccc(Cl)cc3)C2)c1 (stereo not drawn),"inconclusive: 29.1 µM [inhibitor, single point]",
Fc1ccc(-c2nc3ccc(Br)cn3c2Cc2cccc(Cl)c2)cc1,"inconclusive: 18.4 µM [inhibitor, single point]",
COc1ccc(/C=N/NC(=O)c2cccc3ccccc23)c(OC)c1OC,"inconclusive: 29.1 µM [inhibitor, single point]",

SMILES,Potency,"activity change, negative = growth inhibition"
Cc1cc(Br)ccc1NC(=O)CN(C)C(=O)C1CCN(C(=O)c2ccc(Cl)cc2)CC1,"inconclusive: 16.4 µM [inhibitor, single point]",
Cc1nnc(C)n1/N=C/c1cccn1C,"inconclusive: 29.1 µM [inhibitor, partial curve, poor fit]",
NC(=O)c1ccsc1NC(=O)CCc1ccccc1,"inconclusive: 20.6 µM [inhibitor, partial curve]",
COc1ccc(/C=C2\SC(=O)N(CCC(=O)N3CCCCC3CCO)C2=O)cc1 (stereo not drawn),active: 20.6 µM,
c1ccc(-n2nnc3c(N4CCOCC4)ncnc32)cc1,"inconclusive: 13 µM [inhibitor, single point]",
O=C(/C=C/c1ccco1)Nc1nc(-c2ccccn2)cs1,active: 7.31 µM,
COC(=O)[C@H]1C[C@H](O)CN1S(=O)(=O)c1ccc(Br)cc1F,,inactive: -1.52%
Cc1ccccc1Cn1nc(C)c(NC(=O)c2noc3c2CCCC3)c1C,"inconclusive: 29.1 µM [inhibitor, single point]",
CCn1c(CNC(=O)c2ccc(OC)c(OC)c2)nnc1SCC(=O)c1ccc(OC)cc1,"inconclusive: 18.4 µM [inhibitor, partial curve]",
COc1ccc(CN(C)C(=S)Nc2ccc(OC(F)F)cc2)cc1,"inconclusive: 32.6 µM [inhibitor, single point]",
O=C(NC(c1ccccc1)c1ccccc1)c1cccc(S(=O)(=O)NCc2ccccc2)c1,"inconclusive: 25.9 µM [inhibitor, single point]",
Cc1nc(-c2ccc(C(=O)N3CCCC3)cc2)cs1,,inactive: -27.1%
O=C(Nc1ccc2c(c1)OCO2)c1cc(C2CCCCN2S(=O)(=O)c2cccs2)on1 (stereo not drawn),active: 23.1 µM,
CC(C)(C)c1ccc(N2C(=O)CC(C/C=C/c3ccccc3)C2=O)cc1 (stereo not drawn),"inconclusive: 9.2 µM [inhibitor, partial curve, poor fit]",
CC(=O)c1cccc(NC(=S)N2CCN(CCN3C(=O)c4cccc5cccc(c45)C3=O)CC2)c1,"inconclusive: 23.1 µM [inhibitor, single point]",
Cc1cccc(CCN(Cc2cc3cccc(C)c3[nH]c2=O)C(=O)N2CCOCC2)c1,,inactive: -24.8%
Fc1ccc(C2c3[nH]c4ccccc4c3CCN2Cc2ccoc2)cc1 (stereo not drawn),"inconclusive: 29.1 µM [inhibitor, single point]",
COC(=O)c1cccc(NC(=O)c2cccc(OC)c2)c1,"inconclusive: 18.4 µM [inhibitor, single point]",
COc1ccc(C(CNC(=O)c2oc3cc(C)c(Cl)cc3c2C)N2CCCCC2)cc1 (stereo not drawn),"inconclusive: 6.51 µM [inhibitor, single point] and inconclusive: 23.1 µM [inhibitor, single point]",
O=S(=O)(c1ccccc1)N1CCC2(CCN(c3ccccc3)CC2)CC1,"inconclusive: 23.1 µM [inhibitor, single point]",
CC1CCN(S(=O)(=O)c2ccc3nc(NCc4ccccc4)ccc3c2)CC1,active: 10.3 µM,
COc1ccc(NC(=O)CCCc2nc3ccccc3c(=O)[nH]2)cc1Cl,"inconclusive: 18.4 µM [inhibitor, single point]",
COc1ccc(-n2cnnc2SC(C)C(=O)Nc2cccc([N+](=O)[O-])c2)cc1 (stereo not drawn),,inactive: -20.9%
COC(CNC(=O)c1ccc2c(c1)nc(C)n2-c1cccc(C)c1)OC,,inactive: -19.8%
COCCNC(=O)CCc1c(C)n(C)c2cc(-c3cc(OC)c(OC)c(OC)c3)nn2c1=O,,inactive: 0.619%

SMILES,Potency,"activity change, negative = growth inhibition"
O=C(CSc1nnc2ccccn12)Nc1ccccc1C(=O)O,,inactive: -1.34%
CSc1ccccc1NC(=O)c1ccccc1N(Cc1ccccc1)S(C)(=O)=O,,inconclusive: -31.9% [inhibitor]
O=C(COC(=O)/C=C/c1cccc(C(F)(F)F)c1)Nc1ccc(Cl)cn1,,inactive: 18.3%
COc1ccc(-c2csc(NC(=O)CSCc3c(C)noc3C)n2)cc1OC,active: 9.2 µM,
O=C(OCC(=O)N1CCOCC1)c1cc2ccccc2oc1=O,,inactive: 8.08%
CCOC(=O)C(=CNc1ccc(Oc2cccnc2)nc1)C(=O)OCC,"inconclusive: 18.4 µM [inhibitor, single point]",
COc1ccc(-n2ncc(C(C)NS(=O)(=O)c3ccc(C)s3)c2C)cc1 (stereo not drawn),,inactive: -21.9%
Cc1c(O)ccc2c(CC(=O)N[C@@H](Cc3ccc(O)cc3)C(=O)O)cc(=O)oc12,,inactive: 0.131%
CCOc1ccc(NC(=O)c2ccc3c(c2)C(=O)N(Cc2ccncc2)C3=O)cc1,,inactive: -19.1%
O=C(NCc1cccs1)c1ccc(S(=O)(=O)N2CCOCC2)cc1,,inactive: -15%
O=C(Cn1nc(-c2ccc(Cl)cc2)c2ccccc2c1=O)Nc1cccc(C(F)(F)F)c1,"inconclusive: 29.1 µM [inhibitor, single point]",
CCCC(=O)Nc1ccc(S(=O)(=O)Nc2cc(OC)ncn2)cc1,,inactive: 13.7%
COC(=O)c1c(NC(=O)/C=C/c2ccco2)sc2c1CCC2,"inconclusive: 23.1 µM [inhibitor, single point]",
CC1CN(c2ncnc3c2oc2ccccc23)CC(C)O1 (stereo not drawn),active: 20.6 µM,
Cc1ccccc1Nc1nc(N)nc(COC(=O)c2c(C)noc2C)n1,,inactive: -28.4%
CCCCN(CC)CCCNC(=O)c1cc2c(=O)n(CC)c3ccccc3c2s1,"inconclusive: 29.1 µM [inhibitor, single point]",
CCCCCCCCC(=O)N/N=C(\C)c1ccc(O)cc1O,"inconclusive: 29.1 µM [inhibitor, single point]",
O=C(NC1CCN(Cc2ccc(Cl)c(Cl)c2)CC1)c1ccccc1,"inconclusive: 20.6 µM [inhibitor, single point]",
Cc1cccc2[nH]c(CCNC(=O)C3CCC(=O)N(CCc4cccc(F)c4)C3)nc12 (stereo not drawn),,inactive: 6.49%
CN(C)C(=O)c1ccc(-c2cc(NCc3ccccc3)ncn2)cc1,,inactive: 0.703%
CCOc1ccc(N(C)S(=O)(=O)c2ccc(C)c(C(=O)N3CCN(Cc4ccc5c(c4)OCO5)CC3)c2)cc1,"inconclusive: 29.1 µM [inhibitor, single point]",
Cn1c(SCc2cc(=O)c3cc(Cl)ccc3[nH]2)nnc1-c1ccccc1,active: 20.6 µM,
S=c1[nH]nc(-c2ccc(Br)o2)n1Cc1ccccc1,active: 20.6 µM,
